Assay results reported in the antibiotic and cytotoxicity screens of Wong et al. (2023).
Some of the results follow.

These compounds were tested on HSkMC (human skeletal muscle cells) (assay: cytotoxicity call (relative viability < 0.9)). Conditions: 10 µM.

SMILES	cytotoxicity call
COCCNC(=O)C[C@@H]1C[C@@H]2c3cc(NS(C)(=O)=O)ccc3O[C@@H]2[C@@H](CO)O1	inactive
Cc1noc(C)c1S(=O)(=O)N(C)C[C@@H]1Oc2ccc(NC(=O)Cc3ccccc3)cc2CC(=O)N([C@@H](C)CO)C[C@H]1C	inactive
C[C@H]1OC(=O)CC[C@@H](O)/C=C/[C@@H](O)[C@@H]1O	inactive
C[C@H](CO)N1C[C@H](C)[C@@H](CN(C)C(=O)CN(C)C)Oc2cc(C#C[C@@H](C)O)ccc2S1(=O)=O	inactive
CC(C)NC(=O)N(C)C[C@H]1Oc2ccc(NC(=O)CCC(F)(F)F)cc2C(=O)N([C@@H](C)CO)C[C@H]1C	inactive
C[C@@H]1CCCCO[C@H](CN(C)Cc2ccc3c(c2)OCO3)[C@H](C)CN([C@H](C)CO)C(=O)c2cc(NC(=O)Nc3cccc4ccccc34)ccc2O1	active
Cc1ccc(S(=O)(=O)Nc2ccc3c(c2)C(=O)N([C@@H](C)CO)C[C@@H](C)[C@H](CN(C)S(=O)(=O)c2ccc(F)cc2)O3)cc1	inactive
C[C@@H]1CN([C@H](C)CO)C(=O)c2cccc(NS(C)(=O)=O)c2O[C@H]1CN(C)C(=O)Nc1ccc2c(c1)OCO2	inactive
C[C@@H]1CCCCO[C@H](CN(C)Cc2ccncc2)[C@H](C)CN([C@@H](C)CO)C(=O)c2cc(NC(=O)CCC(F)(F)F)ccc2O1	inactive
CN1CCN(C(=O)C[C@@H]2CC[C@@H]3[C@H](COC[C@H](O)CN3C(=O)Nc3cc(Cl)cc(Cl)c3)O2)CC1	inactive
CS(=O)(=O)c1ccc(C(O)C(CO)NC(=O)C(Cl)Cl)cc1 (configuration not stated)	inactive
CN(C)CC(=O)N1CC2(C1)[C@H](c1ccccc1)[C@H](CO)N2S(C)(=O)=O	inactive
C[C@@H]1CN([C@@H](C)CO)C(=O)c2cc(NS(=O)(=O)c3ccc(F)cc3)ccc2O[C@@H](C)CCCCO[C@@H]1CN(C)S(=O)(=O)c1ccc(Cl)cc1	inactive
C[C@H](CO)N1C[C@H](C)[C@H](CN(C)S(=O)(=O)c2ccc(Cl)cc2)OCCCC[C@H](C)Oc2ccc(NC(=O)C3CCCCC3)cc2C1=O	inactive
C[C@H](CO)N1C[C@H](C)[C@@H](CN(C)C(=O)Nc2ccc3c(c2)OCO3)Oc2ccc(NC(=O)Nc3ccc(C(F)(F)F)cc3)cc2CC1=O	inactive
C[C@@H]1CN([C@@H](C)CO)C(=O)c2cc(NC(=O)Nc3cccc4ccccc34)ccc2O[C@@H](C)CCCCO[C@@H]1CN(C)S(=O)(=O)c1cccs1	inactive
C[C@@H]1CN([C@H](C)CO)C(=O)c2cc(NC(=O)Nc3ccc(C(F)(F)F)cc3)ccc2O[C@H]1CN(C)Cc1ccncc1	inactive
C[C@@H]1CCCCO[C@H](CN(C)C(=O)Nc2ccc(C(F)(F)F)cc2)[C@H](C)CN([C@@H](C)CO)C(=O)c2cc(NC(=O)C3CCCCC3)ccc2O1	inactive
O=C(C[C@@H]1C[C@H]2c3cc(NC(=O)c4ccc5c(c4)OCO5)ccc3O[C@H]2[C@@H](CO)O1)NCc1ccccn1	inactive
C=CCC[C@@H](Cc1ccc(F)cc1)C(=O)OC[C@@H](NC(=O)[C@@H](CC=C)CC(=O)N[C@@H](CO)Cc1ccccc1)C(C)(C)C	inactive
C[C@@H]1CN([C@@H](C)CO)C(=O)c2cc(NC(=O)Cn3cnnn3)ccc2O[C@H]1CN(C)C(=O)Nc1cccc2ccccc12	inactive
Cc1noc(C)c1S(=O)(=O)N(C)C[C@@H]1OCCCC[C@H](C)Oc2ccc(NC(=O)Nc3ccccc3)cc2C(=O)N([C@@H](C)CO)C[C@H]1C	inactive
Cc1noc(C)c1S(=O)(=O)Nc1ccc2c(c1)C(=O)N([C@@H](C)CO)C[C@H](C)[C@H](CN(C)S(=O)(=O)c1ccccc1)O2	inactive
COc1ccc(C#Cc2ccc3c(c2)[C@]2(C(=O)N3)[C@H](c3ccc(OCCO)cc3)N3[C@H](c4ccccc4)[C@H](c4ccccc4)OC(=O)[C@H]3[C@@H]2C(=O)N2CCN(c3ncccn3)CC2)cc1	inactive
C[C@H](CO)N1C[C@H](C)[C@H](CN(C)C(=O)c2cccnc2)Oc2cc(C#CC3(O)CCCC3)ccc2S1(=O)=O	inactive
C[C@@H]1CCCCO[C@H](CN(C)S(=O)(=O)c2cn(C)cn2)[C@@H](C)CN([C@H](C)CO)C(=O)c2cc(NC(=O)c3ccncc3)ccc2O1	inactive
CN1C(=O)c2cc(NC(=O)c3cscn3)ccc2OC[C@@H]2O[C@H](CC(=O)N3CCOCC3)CC[C@@H]21	inactive
